Assay results from EPA's CvTdb concentration-time database.
This continues a long series; more values of the same kind are listed elsewhere.

How the values were obtained:
Rat [1] = assay: concentration in liver after dosing; details: 1.5 h; dosed: 3,3',4,4',5-pentachlorobiphenyl; 1000 mg/kg; oral; Female; F344
Rat [2] = assay: concentration in liver after dosing; details: 120 h; dosed: 3,3',4,4',5-pentachlorobiphenyl; 1000 mg/kg; oral; Female; Harlan Sprague Dawley
Rat [3] = assay: concentration in plasma after dosing; details: 8760 h; dosed: 3,3',4,4',5-pentachlorobiphenyl; 1000 mg/kg; oral; Male; Harlan Sprague Dawley
Rat [4] = assay: concentration in liver after dosing; details: 6000 h; dosed: 3,3',4,4',5-pentachlorobiphenyl; 1000 mg/kg; oral; Female; Harlan Sprague Dawley
Rat [5] = assay: concentration in liver after dosing; details: 2208 h; dosed: 3,3',4,4',5-pentachlorobiphenyl; 1000 mg/kg; oral; Female; Harlan Sprague Dawley
Rat [6] = assay: concentration in liver after dosing; details: 2208 h; dosed: 3,3',4,4',5-pentachlorobiphenyl; 1000 mg/kg; oral; Female; Harlan Sprague Dawley; remark: listed apart in the source
Rat [7] = assay: concentration in brain after dosing; details: 10 min; dosed: 76231-76-0; 3.0 mg/kg; iv; Female; F344
Rat [8] = assay: concentration in brain after dosing; details: 6 h; dosed: alpha/beta-Thujone mixture; 25 mg/kg; oral; Female; F344
Rat [9] = assay: concentration in plasma after dosing; details: 2 min; dosed: alpha/beta-Thujone mixture; 50 mg/kg; oral; Male; F344
Rat [10] = assay: concentration in brain after dosing; details: 5 min; dosed: alpha/beta-Thujone mixture; 50 mg/kg; oral; Female; F344
Rat [11] = assay: concentration in brain after dosing; details: 0.75 h; dosed: 76231-76-0; 3.0 mg/kg; iv; Male; F344
Rat [12] = assay: concentration in brain after dosing; details: 5 min; dosed: alpha/beta-Thujone mixture; 25 mg/kg; oral; Male; F344
Rat [13] = assay: concentration in brain after dosing; details: 2 min; dosed: alpha/beta-Thujone mixture; 50 mg/kg; oral; Male; F344
Rat [14] = assay: concentration in plasma after dosing; details: 6 h; dosed: alpha/beta-Thujone mixture; 50 mg/kg; oral; Female; F344
Rat [15] = assay: concentration in brain after dosing; details: 0.5 h; dosed: 76231-76-0; 3.0 mg/kg; iv; Female; F344
Rat [16] = assay: concentration in brain after dosing; details: 1.5 h; dosed: alpha/beta-Thujone mixture; 25 mg/kg; oral; Female; F344
Rat [17] = assay: concentration in brain after dosing; details: 0.75 h; dosed: 76231-76-0; 3.0 mg/kg; iv; Male; F344; remark: listed apart in the source
Rat [18] = assay: concentration in brain after dosing; details: 0.5 h; dosed: alpha/beta-Thujone mixture; 25 mg/kg; oral; Female; F344
Rat [19] = assay: concentration in plasma after dosing; details: 6 h; dosed: alpha/beta-Thujone mixture; 25 mg/kg; oral; Male; F344
Rat [20] = assay: concentration in brain after dosing; details: 12 h; dosed: alpha/beta-Thujone mixture; 50 mg/kg; oral; Female; F344
Rat [21] = assay: concentration in plasma after dosing; details: 3 h; dosed: alpha/beta-Thujone mixture; 25 mg/kg; oral; Female; F344
Rat [22] = assay: concentration in brain after dosing; details: 3 h; dosed: alpha/beta-Thujone mixture; 50 mg/kg; oral; Female; F344
Rat [23] = assay: concentration in brain after dosing; details: F344
Rat [24] = assay: concentration in brain after dosing; details: 10 min; dosed: alpha/beta-Thujone mixture; 25 mg/kg; oral; Male; F344
Rat [25] = assay: concentration in plasma after dosing; details: 6 h; dosed: alpha/beta-Thujone mixture; 50 mg/kg; oral; Male; F344
Rat [26] = assay: concentration in plasma after dosing; details: 8 h; dosed: 76231-76-0; 3.0 mg/kg; iv; Male; F344
Rat [27] = assay: concentration in brain after dosing; details: 3 h; dosed: alpha/beta-Thujone mixture; 50 mg/kg; oral; Female; F344; remark: listed apart in the source
Rat [28] = assay: concentration in plasma after dosing; details: 1.5 h; dosed: alpha/beta-Thujone mixture; 50 mg/kg; oral; Male; F344
Rat [29] = assay: concentration in plasma after dosing; details: 2 h; dosed: 76231-76-0; 3.0 mg/kg; iv; Male; F344
Rat [30] = assay: concentration in brain after dosing; details: 12 h; dosed: alpha/beta-Thujone mixture; 25 mg/kg; oral; Female; F344
Rat [31] = assay: concentration in brain after dosing; details: 2 h; dosed: 76231-76-0; 3.0 mg/kg; iv; Male; F344

Clc1ccc(-c2cc(Cl)c(Cl)c(Cl)c2)cc1Cl [3,3',4,4',5-pentachlorobiphenyl]
Details | concentration in liver [pg/g] | concentration in plasma [ng/mL]
Rat [1] | 4080 | –
Rat [2] | 6950 | –
Rat [3] | – | 0.0269
Rat [4] | 762 | –
Rat [5] | 3830 | –
Rat [6] | 4040 | –

CC(C)[C@]12CC(=O)[C@H](C)[C@H]1C2 [alpha-Thujone]
Details | concentration in brain [ng/g] | concentration in plasma [ng/mL]
Rat [7] | 1850 | –
Rat [8] | 92.7 | –
Rat [9] | – | 290
Rat [10] | 915 | –
Rat [11] | 132 | –
Rat [12] | 136 | –
Rat [13] | 869 | –
Rat [14] | – | 251
Rat [15] | 348 | –
Rat [16] | 492 | –
Rat [17] | 209 | –
Rat [18] | 1070 | –
Rat [19] | – | 42.3
Rat [20] | 51 | –
Rat [21] | – | 84.8
Rat [22] | 711 | –
Rat [24] | 558 | –
Rat [25] | – | 114
Rat [26] | – | 11.8
Rat [27] | 435 | –
Rat [28] | – | 339
Rat [29] | – | 28.5
Rat [30] | 13.6 | –
Rat [31] | 45.4 | –

concentration in brain [ng/g], Rat [23], dosed: alpha/beta-Thujone mixture, oral
Details | 0.5 h | 1.5 h | 2 min | 3 h | 5 min | 6 h | 10 min | 12 h
25 mg/kg, Female | 970 | 748 | 215 | 562 | 552 | 112 | 1970 | 15.1
25 mg/kg, Male | 582 | 766 | 20 | 353 | 553 | 45.1 | 540 | –
50 mg/kg, Female | 948 | 748 | 451 | 276 | 548 | 373 | 2480 | 41.2
50 mg/kg, Male | 836 | 543 | 114 | 463 | 212 | 136 | 1630 | –

concentration in brain [ng/g], Rat [23], dosed: 76231-76-0, 3.0 mg/kg, iv
Details | 0.25 h | 0.5 h | 0.75 h | 1 h | 1.5 h | 2 h | 4 h | 5 min | 10 min | 20 min
Female | 801 | 173 | 126 | 98.5 | 48.6 | 30.2 | – | 2880 | 1800 | –
Male | – | – | 110 | 102 | – | 43.8 | 32.3 | 2090 | 931 | 504
